The supplement of paper PMC8728848
Some of the results follow.

Experiments:
Test in all cases: glycan array binding signal (z-score within array); higher = stronger binding
Details in all cases: glycan notation: IUPAC condensed, linker removed
[1] = molecular target: Gal(b1-4)GlcNAc(b1-3)Gal(b1-4)GlcNAc(b1-6)[Gal(b1-3)]GalNAc
How it was run: (§1)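 Negative Z-scores can be read as non-binding. The Z-score is calculated within each array and then averaged across arrays of one protein sequence at different concentrations or buffers and across linkers. Arrays, 3228 in all, were curated from the Consortium for Functional Glycomics database and kept only where the protein sequence was available.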

[2] = molecular target: Gal(b1-4)GlcNAc(b1-3)Gal(b1-4)[Fuc(a1-3)]GlcNAc(b1-3)Gal(b1-4)[Fuc(a1-3)]GlcNAc
How it was run: as §1

[3] = molecular target: Gal(b1-4)GlcNAc(b1-3)GalNAc
How it was run: as §1

[4] = molecular target: Gal(b1-4)GlcNAc(b1-3)[Fuc(a1-3)GlcNAc(b1-6)]Gal(b1-4)Glc
How it was run: as §1

[5] = molecular target: Gal(b1-4)GlcNAc(b1-3)[Gal(b1-4)GlcNAc(b1-6)]Gal(b1-4)GlcNAc
How it was run: as §1

[6] = molecular target: Gal(b1-4)GlcNAc(b1-3)[GlcNAc(b1-6)]Gal(b1-4)GlcNAc
How it was run: as §1

[7] = molecular target: Gal(b1-4)GlcNAc(b1-6)Gal(b1-4)GlcNAc
How it was run: as §1

[8] = molecular target: Gal(b1-4)GlcNAc(b1-6)GalNAc
How it was run: as §1

[9] = molecular target: Gal(b1-4)GlcNAc(b1-6)[Gal(b1-3)]GalNAc
How it was run: as §1

[10] = molecular target: Gal(b1-4)GlcNAc(b1-6)[Gal(b1-4)GlcNAc(b1-3)]GalNAc
How it was run: as §1

Gal(b1-4)GlcNAc6P = molecular target: Gal(b1-4)GlcNAc6P
How it was run: as §1

Gal(b1-6)Gal = molecular target: Gal(b1-6)Gal
How it was run: as §1

Gal3S(b1-3)GalNAc = molecular target: Gal3S(b1-3)GalNAc
How it was run: as §1

Gal3S(b1-3)GlcNAc = molecular target: Gal3S(b1-3)GlcNAc
How it was run: as §1

[11] = molecular target: Gal3S(b1-3)[Fuc(a1-4)]GlcNAc
How it was run: as §1

Gal3S(b1-4)Glc = molecular target: Gal3S(b1-4)Glc
How it was run: as §1

Gal3S(b1-4)Glc6S = molecular target: Gal3S(b1-4)Glc6S
How it was run: as §1

Gal3S(b1-4)GlcNAc = molecular target: Gal3S(b1-4)GlcNAc
How it was run: as §1

[12] = molecular target: Gal3S(b1-4)[Fuc(a1-3)]Glc6S
How it was run: as §1

[13] = molecular target: Gal3S(b1-4)[Fuc(a1-3)]GlcNAc
How it was run: as §1

[14] = molecular target: Gal3S(b1-4)[Fuc(a1-3)]GlcNAc6S
How it was run: as §1

Gal3S4S(b1-4)GlcNAc = molecular target: Gal3S4S(b1-4)GlcNAc
How it was run: as §1

Gal3S6S(b1-4)GlcNAc = molecular target: Gal3S6S(b1-4)GlcNAc
How it was run: as §1

Gal3S6S(b1-4)GlcNAc6S = molecular target: Gal3S6S(b1-4)GlcNAc6S
How it was run: as §1

Gal4S(b1-4)GlcNAc = molecular target: Gal4S(b1-4)GlcNAc
How it was run: as §1

Gal4S6S(b1-4)GlcNAc = molecular target: Gal4S6S(b1-4)GlcNAc
How it was run: as §1

Gal6P(b1-4)GlcNAc = molecular target: Gal6P(b1-4)GlcNAc
How it was run: as §1

Gal6S(b1-3)GlcNAc = molecular target: Gal6S(b1-3)GlcNAc
How it was run: as §1

Gal6S(b1-3)GlcNAc6S = molecular target: Gal6S(b1-3)GlcNAc6S
How it was run: as §1

Gal6S(b1-4)Glc = molecular target: Gal6S(b1-4)Glc
How it was run: as §1

Gal6S(b1-4)Glc6S = molecular target: Gal6S(b1-4)Glc6S
How it was run: as §1

Gal6S(b1-4)GlcNAc = molecular target: Gal6S(b1-4)GlcNAc
How it was run: as §1

Gal6S(b1-4)GlcNAc6S = molecular target: Gal6S(b1-4)GlcNAc6S
How it was run: as §1

GalNAc(a1-3)Gal = molecular target: GalNAc(a1-3)Gal
How it was run: as §1

GalNAc(a1-3)GalNAc = molecular target: GalNAc(a1-3)GalNAc
How it was run: as §1

[15] = molecular target: GalNAc(a1-3)GalNAc(b1-3)Gal(a1-4)Gal(b1-4)Glc
How it was run: as §1

[16] = molecular target: GalNAc(a1-3)GalNAc(b1-3)Gal(a1-4)Gal(b1-4)GlcNAc
How it was run: as §1

GalNAc(b1-3)Gal = molecular target: GalNAc(b1-3)Gal
How it was run: as §1

[17] = molecular target: GalNAc(b1-3)Gal(a1-4)Gal(b1-4)GlcNAc
How it was run: as §1

[18] = molecular target: GalNAc(b1-3)Gal(a1-4)Gal(b1-4)GlcNAc(b1-3)Gal(b1-4)Glc
How it was run: as §1

[19] = molecular target: GalNAc(b1-3)Gal(a1-6)Gal(b1-4)Glc
How it was run: as §1

GalNAc(b1-3)GalNAc = molecular target: GalNAc(b1-3)GalNAc
How it was run: as §1

GalNAc(b1-3)GlcNAc = molecular target: GalNAc(b1-3)GlcNAc
How it was run: as §1

GalNAc(b1-4)Gal(b1-4)Glc = molecular target: GalNAc(b1-4)Gal(b1-4)Glc
How it was run: as §1

GalNAc(b1-4)GlcNAc = molecular target: GalNAc(b1-4)GlcNAc
How it was run: as §1

B1: Cohesin-hMARCO (Homo sapiens) (protein)
chain: LDDLDAVRIKVDTVNAKPGDTVRIPVRFSGIPSKGIANCDFVYSYDPNVLEIIEIEPGDIIVDPNPDKSFDTAVYPDRKIIVFLFAEDSGTGAYAITKDGVFATIVAKVKEGAPNGLSVIKFVEVGGFANNDLVEQKTQFFDGGANVGDTTEPATPTTPVTTPTTTDDLDAASVRIVGSSNRGRAEVYYSGTWGTICDDEWQNSDAIVFCRMLGYSKGRALYKVGAGTGQIWLDNVQCRGTESTLWSCTKNSWGHHDCSHEEDAGVECSVHHHHHH
In the case of B1, the “glycan array binding signal (z-score)” value [1] is reported as -0.364, the “glycan array binding signal (z-score)” value [2] is reported as -0.369 and the “glycan array binding signal (z-score)” value [3] is reported as -0.406. For the same binder, the “glycan array binding signal (z-score)” value [4] was -0.489, the “glycan array binding signal (z-score)” value [5] was -0.454 and the “glycan array binding signal (z-score)” value [6] was -0.33. For the same binder, the “glycan array binding signal (z-score)” value [7] was -0.387, the “glycan array binding signal (z-score)” value [8] was 1.21 and the “glycan array binding signal (z-score)” value [9] was -0.383. For the same binder, the “glycan array binding signal (z-score)” value [10] was 0.033, the “glycan array binding signal (z-score)” value (Gal(b1-4)GlcNAc6P) was -0.353 and the “glycan array binding signal (z-score)” value (Gal(b1-6)Gal) was -0.13. For the same binder, the “glycan array binding signal (z-score)” value (Gal3S(b1-3)GalNAc) was 0.13, the “glycan array binding signal (z-score)” value (Gal3S(b1-3)GlcNAc) was 0.286 and the “glycan array binding signal (z-score)” value [11] was 0.294. For the same binder, the “glycan array binding signal (z-score)” value (Gal3S(b1-4)Glc) was 3.03, the “glycan array binding signal (z-score)” value (Gal3S(b1-4)Glc6S) was 1.61 and the “glycan array binding signal (z-score)” value (Gal3S(b1-4)GlcNAc) was 0.683. For the same binder, the “glycan array binding signal (z-score)” value [12] was 0.121, the “glycan array binding signal (z-score)” value [13] was -0.386 and the “glycan array binding signal (z-score)” value [14] was 3.73. For the same binder, the “glycan array binding signal (z-score)” value (Gal3S4S(b1-4)GlcNAc) was -0.103, the “glycan array binding signal (z-score)” value (Gal3S6S(b1-4)GlcNAc) was 1.16 and the “glycan array binding signal (z-score)” value (Gal3S6S(b1-4)GlcNAc6S) was 0.981. For the same binder, the “glycan array binding signal (z-score)” value (Gal4S(b1-4)GlcNAc) was -0.154, the “glycan array binding signal (z-score)” value (Gal4S6S(b1-4)GlcNAc) was -0.129 and the “glycan array binding signal (z-score)” value (Gal6P(b1-4)GlcNAc) was -0.306. The “glycan array binding signal (z-score)” value (Gal6S(b1-3)GlcNAc) was -0.45, the “glycan array binding signal (z-score)” value (Gal6S(b1-3)GlcNAc6S) was 1.09 and the “glycan array binding signal (z-score)” value (Gal6S(b1-4)Glc) was 0.146. For the same binder, the “glycan array binding signal (z-score)” value (Gal6S(b1-4)Glc6S) was 0.346, the “glycan array binding signal (z-score)” value (Gal6S(b1-4)GlcNAc) was -0.215 and the “glycan array binding signal (z-score)” value (Gal6S(b1-4)GlcNAc6S) was 0.105. For the same binder, the “glycan array binding signal (z-score)” value (GalNAc(a1-3)Gal) was 1.03, the “glycan array binding signal (z-score)” value (GalNAc(a1-3)GalNAc) was 0.678 and the “glycan array binding signal (z-score)” value [15] was -0.264. For the same binder, the “glycan array binding signal (z-score)” value [16] was -0.272, the “glycan array binding signal (z-score)” value (GalNAc(b1-3)Gal) was 3.14 and the “glycan array binding signal (z-score)” value [17] was 0.792. The “glycan array binding signal (z-score)” value [18] was 0.383, the “glycan array binding signal (z-score)” value [19] was 1.8 and the “glycan array binding signal (z-score)” value (GalNAc(b1-3)GalNAc) was 0.247. For the same binder, the “glycan array binding signal (z-score)” value (GalNAc(b1-3)GlcNAc) was 0.466, the “glycan array binding signal (z-score)” value (GalNAc(b1-4)Gal(b1-4)Glc) was -0.13 and the “glycan array binding signal (z-score)” value (GalNAc(b1-4)GlcNAc) was 0.286.
